SMILES strings stand for the structures. This is one part of the list. These are further read-outs of the screen, such as a control signal, another cell line or another target. No call is given for them. The list favours compounds with an active or inconclusive main result. The note in brackets gives the kind of curve behind each potency; many fits are weak.
Tags give direction and shape of the fitted curve.

A short description of the assay: Cell-based coincidence reporter assay to measure PMP22 gene transcription in S16 Pmp22-F2sN cells - Confirmatory screen (AID 1508646). Particulars: S16 Schwann cells Pmp22-F2sN, dual luciferase, 24 h; measured here: FLuc reporter channel. The gist of the method:
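S16 rat Schwann cells carrying FLuc-2A-NLuc reporter in Pmp22 3' UTR (500-1,000 cells/well) treated with pinned compounds for 24 h at 37C. Dual-luciferase reads: FLuc luminescence first, then NLuc after Stop&Glo.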
With `COc1ccc(C2Sc3ccccc3NC3=C2C(=O)c2ccccc23)c(OC)c1OC` (stereo not given), the AC50 was 4.85 µM [falling, full curve, poor fit].

As to `CCN(CC)CCCNC(=O)CSc1c2c(nc3cc(Cl)ccc13)CCCC2`, the AC50 is 8.62 µM [falling, full curve].

Take `COc1cc(C2CC(=O)Nc3cc4c(cc32)OCCO4)cc(Br)c1OC` (stereo not given): the AC50 is 19.3 µM [falling, partial curve, poor fit].

As to `COc1cc(C(=O)Nc2c(C(=O)Nc3ccccc3F)oc3ccccc23)cc(OC)c1OC`, the AC50 was 7.69 µM [falling, partial curve].

On to `COC(=O)c1c(-c2ccc(Cl)cc2)noc1N1CCN(c2cccc(C(F)(F)F)c2)CC1`, for which the AC50 was 15.3 µM [falling, partial curve].

As for `Cc1cccc(Nc2cc(C)nc(-n3nc(C)cc3C)n2)c1`, the AC50 is 10.9 µM [falling, full curve, poor fit].

Regarding `COC(=O)c1c(C)oc2ccc(N(C(=O)c3ccncc3)S(=O)(=O)c3c(C)cc(C)cc3C)cc12`, the AC50 was 24.3 µM [falling, partial curve, poor fit].

`O=C(NCc1ccccc1Cl)c1ccc(Nc2nc3ccccc3n3nnnc23)cc1`: the AC50 was 15.3 µM [falling, full curve, poor fit].

As to `CCC(C)NC(=O)CSc1c2c(nc3cc(Cl)ccc13)CCCC2` (stereo not given), the AC50 was 13.7 µM [falling, partial curve].

As to `Cc1ccc(CNC(=O)Cn2c(=O)n(-c3cccc(Cl)c3)c(=O)c3sc4ccccc4c32)cc1`, the AC50 is 17.2 µM [falling, partial curve, poor fit].

Turning to `O=C(CSc1ncc2c(n1)-c1ccccc1N(Cc1ccc(F)cc1)S2(=O)=O)NCCc1ccccc1`, the AC50 is 21.7 µM [falling, partial curve].

With `Cc1ccc(NC(=O)c2nc(S(=O)(=O)Cc3cccc(C)c3)ncc2Cl)cc1`, the AC50 is 10.9 µM [falling, partial curve].

Consider `Cc1ccc(C(=O)c2oc3ccccc3c2NC(=O)c2nc(S(C)(=O)=O)ncc2Cl)cc1F`, for which the AC50 is 10.9 µM [falling, full curve].

In the case of `COc1cc(OC)c(OC)cc1CN1CCc2nc(N3CCN(c4ccccc4F)CC3)ncc2C1`, the AC50 is 27.3 µM [falling, partial curve, poor fit].

Regarding `CCn1ccc2c(OCC(=O)Nc3ccccc3C(F)(F)F)cccc2c1=O`, the concentration at half-maximal activity (AC50) is 30.6 µM [falling, single point].

In the case of `Cc1[nH]c2ccccc2c1C1(O)C(=O)N(Cc2ccccc2)c2ccc(Cl)cc21` (stereo not given), the AC50 was 24.3 µM [falling, partial curve].

On to `CCCC1=Nc2cc(C(=O)NC3CCCCC3)ccc2Sc2ccc(C)cc21`, for which the AC50 is 1.93 µM [falling, full curve].

Take `COc1ccc(-c2onc(C)c2C)cc1S(=O)(=O)NCc1ccc(C)o1`: the AC50 was 15.3 µM [falling, single point].

For `COc1cccc(CNC(=O)Nc2ccc3c(c2)N(C)C(=O)c2ccccc2S3)c1`, the AC50 was 27.3 µM [falling, single point].

With `COc1ccc(-c2onc(C)c2C)cc1S(=O)(=O)NCC1CCN(Cc2cccc(F)c2)CC1`, the AC50 was 19.3 µM [falling, partial curve].

For `COc1ccc(CC(=O)Nc2sc3c(c2C(=O)Nc2cccc(C)c2)CCCCC3)cc1`, the AC50 was 24.3 µM [falling, partial curve, poor fit].

For the compound `COc1nnc(-c2ccc(N3CCCCC3)c(NC(=O)c3ccc(Cl)cc3)c2)c2ccccc12`, the AC50 is 24.3 µM [falling, single point].

With `Cc1ccc(CCNC(=O)c2ccc(Nc3nc4ccccc4n4nnnc34)cc2)cc1`, the AC50 was 21.7 µM [falling, partial curve].

Take `CCCN(C(=O)c1cc2c(=O)n(CC)c3ccccc3c2s1)c1ccccc1F`: the AC50 was 27.3 µM [falling, partial curve, poor fit].

As to `COc1cccc(NC(=O)N(Cc2c[nH]c3ccccc23)C2CCCCCC2)c1`, the AC50 was 43.2 µM [falling, single point].

As for `Cc1ccccc1S(=O)(=O)Cc1ccc(C(=O)N2CCN(c3cccc(Cl)c3)CC2)o1`, the AC50 was 10.9 µM [falling, full curve].

Regarding `Cc1cc(C)cc(Nc2cc(C(=O)NCCCN(C)C3CCCCC3)c3ccccc3n2)c1`, the AC50 is 15.3 µM [falling, full curve].

For `CCN1CCN(CCCNC(=O)c2ccc3c(c2)sc2nc(-c4ccc(C)cc4)cn23)CC1`, the AC50 was 17.2 µM [falling, partial curve].

With `COc1cccc(NC(=O)N(Cc2cn(C)c3ccccc23)C2CCCCC2)c1`, the AC50 is 27.3 µM [falling, partial curve].

With `Cn1nnnc1SCCNCc1cc(Br)ccc1OCc1ccccc1Cl`, the AC50 is 19.3 µM [falling, partial curve, poor fit].

In the case of `CCCCn1c(=O)c2oc3ccccc3c2n(CC(=O)Nc2ccc(CC)cc2)c1=O`, the AC50 was 21.7 µM [falling, partial curve].

`CCOC(=O)c1c(NC(=O)c2ccc(S(=O)(=O)N3CCC(C)CC3)cc2)sc2c1CCN(C)C2`: the AC50 is 17.2 µM [falling, partial curve].

On to `Cc1ccc(-c2c(C)n3c4c(=O)n(C)c(=O)n(C)c4nc3n2-c2cccc(O)c2)cc1`, for which the half-maximal activity concentration (AC50) is 5.44 µM [falling, partial curve, poor fit].

Turning to `CCc1ccc(OCC(=O)Nc2cc3oc4ccccc4c3cc2OC)cc1`, the AC50 was 19.3 µM [falling, partial curve].

For the compound `CCN(CC)c1cc(C)c2cc(NC(=O)/C=C/c3ccccc3Cl)ccc2n1`, the AC50 is 24.3 µM [falling, partial curve].

`O=C(Nc1nc2ccc(F)cc2s1)c1nc(S(=O)(=O)Cc2ccccc2F)ncc1Cl`: the AC50 is 13.7 µM [falling, partial curve].

Consider `Cc1cc(Nc2cccc(Br)c2)n2c(nc3ccccc32)c1C#N`, for which the AC50 is 43.2 µM [falling, single point].

On to `O=C(CSc1nc2ccsc2c(=O)n1-c1ccc(Br)cc1)NCc1ccc(Cl)cc1`, for which the AC50 is 21.7 µM [falling, partial curve, poor fit].

As for `CCCCOc1ccc(CN2C(=O)C(=O)c3cc(C)ccc32)cc1OC`, the AC50 was 30.6 µM [falling, partial curve, poor fit].

Turning to `COc1cc(/C=C(\C#N)c2nc3ccccc3[nH]2)ccc1OCc1ccccc1F`, the AC50 was 5.44 µM [falling, full curve].

Values taken from PubChem BioAssay (NCATS).
